About 800 (1.6%) of roughly 50,000 compounds showed an effect of 50% or more. Some of the results follow.

The target in this experiment is Bcl-2-like protein 10 (Homo sapiens) (UniProt Q9HD36). Put plainly: TR3 peptide-Bcl-B binding displacers, biochemical primary FP assay, phenotype converters (AID 1240).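 Further: 0% = Bcl-B with tracer peptide and DMSO and 100% = tracer peptide lacking Bcl-B.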 As to conditions: GST-Bcl-B / FITC-TR3 peptide fluorescence polarization; stronger effect = higher value; compound at 3.75 mg/L. (In general: In fluorescence polarisation assays a small probe gives low polarisation when free and higher when bound to something large.)
UniProt Q9HD36, sequence (Q9HD36 whole entry, looked up): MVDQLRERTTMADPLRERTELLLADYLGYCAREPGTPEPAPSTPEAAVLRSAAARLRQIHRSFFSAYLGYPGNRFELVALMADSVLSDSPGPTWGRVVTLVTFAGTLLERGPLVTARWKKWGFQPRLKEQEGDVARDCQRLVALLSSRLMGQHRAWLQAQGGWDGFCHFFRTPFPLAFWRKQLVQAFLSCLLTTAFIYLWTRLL
Regarding `O=C1C(Cl)=C(NCCc2ccccc2)C(=O)N1c1cccc(Cl)c1Cl`, the displacement was found to be 15.4%.
For `COc1ccc(N(CC(=O)NC(C)C)S(C)(=O)=O)c(OC)c1` the value was -1.9%.
As for `COc1ccc(OC)c(NC(=S)NC(=O)c2ccccc2Cl)c1`, the figure is 11.8%.
Take `Cc1ccc(N2C(=O)CC(N3CCC(C)CC3)C2=O)cc1` (stereo unspecified): the displacement came out at 3.3%.
Regarding `CCOC(=O)c1ccccc1NC(=O)CCc1ccccc1`, the displacement is -1.5%.
As for `O=C(CSc1n[nH]c(=O)[nH]c1=O)c1ccc(Cl)cc1`, the displacement is -6.1%.
For `CCOC(=O)C1=C(C)N=c2s/c(=C/c3c[nH]c4ccccc34)c(=O)n2C1c1ccc(F)cc1` (stereo unspecified) the value was 9.1%; for `COc1ccc(N2C(=O)c3ccccc3NC2c2cc(OC)c(OC)c(OC)c2)cc1` (stereo unspecified), 10.3%.
For `CCOc1ccc(NC(=O)CN(c2ccc(OC)cc2)S(C)(=O)=O)cc1`, the displacement is -0.1%.
For `CCc1cccc(NC2(c3ccccc3)C(=O)c3ccccc3C2=O)c1` the value was -0.9%; for `CC(=Nc1ccccc1C(F)(F)F)C1=C(O)c2ccccc2C1=O`, -6.2%; for `COc1ccccc1OCC(=O)NCc1cccnc1`, -4.2%.
As for `O=c1cc(-c2ccccc2)c2ccc(OCc3ccccc3F)cc2o1`, the displacement is 9.8%.
Regarding `N#C/C(=C\c1ccc(-c2cccc([N+](=O)[O-])c2)o1)C(=O)Nc1ccccc1O`, the displacement amounted to 3.9%.
As for `CC1=C(C(=O)OCCc2ccccc2)C(c2ccc(Br)cc2)NC(=O)N1` (stereo unspecified), the figure is -2.6%; as for `O=C1CC(N2CCN(c3ccccc3F)CC2)C(=O)N1c1ccccc1` (stereo unspecified), -7.4%; as for `O=C1C(=O)N(CN2CCN(CN3C(=O)C(=O)c4ccccc43)C2)c2ccccc21`, -0.3%.
For `Cc1ccc(-c2nn3c(=O)cc(N4CCN(c5ccc(C(F)(F)F)cc5[N+](=O)[O-])CC4)nc3s2)cc1` the value was 13.6%.
As for `CCOC(=O)CSc1nnc(CCCN2C(=O)c3cccc4cccc(c34)C2=O)n1-c1ccccc1`, the figure is 3.5%; as for `CCOC(=O)c1sc(NC(=O)c2cccc3ccccc23)nc1C`, 1.6%; as for `O=C(Nc1ccc(Br)c(Cl)c1)c1ccccc1Cl`, -1.2%.
As for `CC(C)c1ccc(NC(=O)Cc2cccc3ccccc23)cc1`, the displacement is -6.4%.
As for `CCOC(=O)/C(C#N)=C1\C(=O)Nc2ccccc21`, the figure is 4.1%; as for `CCOC(=O)/C(C#N)=C/C1=Cc2c(OC)c3ccccc3n2C1=O`, 39.7%; as for `CC1=C(C(=O)Nc2ccc(C)cc2)C(c2ccccc2Br)NC(=O)N1` (stereo unspecified), 8.2%.
As for `Oc1ccc(Br)cc1/C=N\N1CCN(c2ccccc2)CC1`, the figure is -20.9%.
As for `O=C(NCc1cccs1)c1nn2c(c1Cl)NC(c1ccccc1)CC2C(F)(F)F` (stereo unspecified), the figure is 0%; as for `Cc1cccc(NC(=O)/C=C/c2ccc(F)cc2)c1`, 8.3%; as for `O=Cc1cn(-c2ccccc2)nc1-c1cccs1`, 1.8%.
For `c1ccc(OCC2=NNC(COc3ccccc3)=NN2)cc1`, the displacement worked out at 9.1%.
For `COc1ccccc1N1C(=O)CC(N2CCN(Cc3ccc4c(c3)OCO4)CC2)C1=O` (stereo unspecified) the value was -3.5%.
For `CCOC(=O)C1=C(C)N=C2c3ccccc3C(=O)C2C1c1ccc(C)cc1` (stereo unspecified), the displacement is -5.3%.
Regarding `Cc1ccc(N2C(=O)C=CC2=O)cc1[N+](=O)[O-]`, the displacement was found to be 12.7%.
As for `COc1ccc(N2C(=O)c3ccccc3NC2c2c(F)c(F)c(F)c(F)c2F)cc1` (stereo unspecified), the figure is 4.6%; as for `Nc1nnc(SCC(=O)NCC(=O)c2ccccc2)s1`, -6.2%.
For `O=C(Nc1ccc(Cl)cc1)Nc1nnc(-c2ccccc2Cl)s1` the value was 11.8%; for `CCOP(=O)(OCC)C(OC(N)=O)c1ccc([N+](=O)[O-])cc1` (stereo unspecified), -9.1%.
Regarding `O=C(c1ccccc1)N1CCN(c2ccc([N+](=O)[O-])cc2Cl)CC1`, the displacement is -4.9%.
For `COc1ccc2nc(/N=C(/N)NC(=O)Cc3ccc(Cl)cc3)nc(C)c2c1` the value was 11.6%.
As for `C=CCN1C(=O)/C(=C/c2ccc(OCC)cc2O)SC1=S`, the displacement was -3%.
As for `COc1ccc2oc(/C=C/N(C)C)c(C(=O)c3ccccc3)c2c1`, the displacement is -12%.
As for `N#CC(C(N)=O)=C1CCC2(CC1)OCCCCO2`, the figure is -0.5%; as for `Cc1cc(C)c(S(=O)(=O)Nc2c(C)cccc2C)c(C)c1`, -1.6%; as for `CC1(C)CC(=O)C2=C(C1)c1cc3ccccc3cc1NC2c1cccc([N+](=O)[O-])c1` (stereo unspecified), 11.9%.
As for `Cc1cc(=O)[nH]c(NCc2ccccc2)n1`, the figure is -7.4%; as for `CCCC(=O)Nc1ccc(Cc2ccc(NC(=O)CCC)c(C(=O)O)c2)cc1C(=O)O`, 9.1%.
For `CCCCn1c(=N)n(CC(O)c2ccc(Cl)cc2)c2ccccc21` (stereo unspecified), the displacement was -4.6%.
For `O=C(NN=C1CCCC1)c1ccc(O)cc1` the value was 0.7%; for `CCN1C(=O)/C(=C\C=C\c2ccccc2[N+](=O)[O-])SC1=S`, -14.2%.
For `Cc1ccc(N2C(=O)CC(NCCN3CCOCC3)C2=O)cc1` (stereo unspecified) the value was 3.9%; for `O=C(NN=C1CCCC1)c1ccncc1`, -1.9%.
For `COc1ccc(CCN=CC2=C(O)CC(C)(C)CC2=O)cc1OC` the value was 3.2%; for `Cc1cc(OCC(=O)Nc2cccc([N+](=O)[O-])c2)cc(C)c1Cl`, 7.8%.
`Cc1ccc(NC(=O)c2cc3cc([N+](=O)[O-])ccc3oc2=O)cc1`: the displacement came to 13.5%.
Consider `Cc1cc(C)cc(N2C(=O)NC(=O)/C(=C\c3cccc(O)c3)C2=O)c1`, for which the displacement is 4%.
On to `Cc1cc(Nc2ccccc2)nc(N)n1`, for which the displacement is -12.9%.
For `Cc1ccc(S(=O)(=O)N/N=C/c2ccc(-c3ccc([N+](=O)[O-])cc3C)o2)cc1` the value was 52.8%; for `CCCCOc1ccccc1C1C(C(=O)OC)=CNC=C1C(=O)OC`, 7.6%; for `Cc1cccc(NC(=O)C2CC(=O)N(c3ccc(Br)cc3)C2)n1` (stereo unspecified), 14.8%.
Regarding `COc1cccc(NC(=O)CCN2C(=O)/C(=C/c3ccc(C)cc3)SC2=S)c1`, the displacement came to 39.1%.
With `CCCCCOC(=O)CSc1nnc(-c2ccccc2)o1`, the displacement was found to be 5.8%.
For `O=C(COc1ccc(Cl)cc1Cl)Nc1ccc(-c2nc3ccccc3s2)c(O)c1` the value was 33.8%.
As for `CCOc1ccc(-n2c(C)cc(C=O)c2C)cc1`, the figure is 48.6%; as for `CC(=O)Oc1ccc2ccccc2c1C(NC(=O)Cc1ccccc1)c1ccc([N+](=O)[O-])cc1` (stereo unspecified), -11.5%; as for `O=C(c1ccccc1O)N(Cc1ccccc1)c1ccccn1`, 0.4%.
As for `Cc1ccc(OCCNC(=O)c2cccc3ccccc23)cc1`, the figure is 13.8%; as for `CC(C)C1C(C#N)=C(N)Oc2n[nH]c(-c3ccccc3)c21` (stereo unspecified), -9.1%; as for `Cc1cc(C)c(NC(=O)C2C3CCC4C(CCC32)C4(Cl)Cl)c(C)c1` (stereo unspecified), 4.3%.
Take `CN(C)c1cccc(C(=O)NCC2CCCO2)c1` (stereo unspecified): the displacement came out at 11.8%.
As for `Cc1ccc(NCC(=O)N=Nc2c(O)[nH]c(=O)[nH]c2=O)cc1`, the figure is 12.7%; as for `CC(C)(C)c1cc(Br)ccc1OCC(=O)Nc1ccccc1[N+](=O)[O-]`, 5.9%; as for `CC(NS(=O)(=O)c1ccc2c(c1)OCCO2)C(=O)O` (stereo unspecified), 12.3%.
Take `O=C(O)CCC(=O)N1N=C(c2ccc(Br)cc2)CC1c1cccs1` (stereo unspecified): the displacement was found to be 14.4%.
For `O=C(Nc1cc(F)c(F)cc1Cl)OCc1cccc([N+](=O)[O-])c1` the value was -16.2%; for `C=CSC1=C(C#N)C(c2cccc3ccccc23)CC(=O)N1` (stereo unspecified), -0.6%.
For `CCN1CCn2c3c(c4cc(C)ccc42)CCCC31` (stereo unspecified) the value was 2.3%.
As for `COc1cccc(C(=O)Nc2cc(OC)ccc2OC)c1`, the displacement turned out to be 3.4%.
As for `COc1ccc(C2CC3CC(c4ccccc4)N2O3)cc1` (stereo unspecified), the figure is 2.6%; as for `NC(=O)OC(c1ccccc1[N+](=O)[O-])P(=O)(c1ccccc1)c1ccccc1` (stereo unspecified), -2.1%.
As to `CC(=O)OCc1c(OC(C)=O)ccc2c([N+](=O)[O-])c(C)n(-c3ccc(C)cc3)c12`, the displacement is -6.6%.
As for `Cc1ccc(CNC(=O)c2ccc(Cl)c([N+](=O)[O-])c2)cc1`, the figure is 6.1%.
For `CC(=O)C1=C(O)C(=O)N(CCN2CCNCC2)C1c1cccc(F)c1` (stereo unspecified) the value was -17.2%; for `O=C1NC(=S)N(c2cccc(Br)c2)C(=O)/C1=C/c1ccc(Cl)cc1`, 16.9%.
For `CSc1ccc(-c2ncnn2-c2cccc(Cl)c2)cc1` the value was -4.7%.
`Cc1ccc(-c2csc(Nc3cccc(O)c3)n2)c(C)c1`: the displacement was found to be 1.9%.
For `Cn1c(=O)n(Cc2ccccc2Cl)c2ccccc21` the value was 13.9%.
As for `Nc1nc(-c2ccccc2)cc(N2CCCC2)n1`, the figure is 15.1%; as for `O=C1C2ON(c3ccccc3)C(c3ccc([N+](=O)[O-])cc3)C2C(=O)N1Cc1ccccc1` (stereo unspecified), 8.5%.
Turning to `COc1ccc(OC)c(/C=N/Nc2nc(C)c(C)s2)c1`, the displacement is -8.5%.
As for `CCCOC(=O)c1ccc(N=Cc2ccc([N+](=O)[O-])cc2)cc1`, the displacement was 8.2%.
As for `COC(=O)C1=NNC2C(=O)N(c3cccc(C)c3C)C(=O)C12` (stereo unspecified), the figure is -5.7%; as for `CCCc1cc(C(=O)OC)c(NC(=O)c2ccc(OCC(C)C)cc2)s1`, -4.5%.
Take `CCc1ccc2oc(-c3cccc(NC(=O)c4ccc5c(c4)OCCO5)c3)nc2c1`: the displacement was found to be 0.9%.
For `COc1cccc(C=Nc2cc(Cl)cc(Cl)c2)c1O` the value was -9%.
As for `O=C(/C=C/c1cc2c(cc1Br)OCO2)c1cccc([N+](=O)[O-])c1`, the figure is 9.2%; as for `CC(NS(=O)(=O)c1cc(Cl)ccc1Cl)c1ccccc1` (stereo unspecified), -2.5%; as for `O=C(O)C1C2CCC(C2)C1C(=O)Nc1nc(-c2ccc(Cl)c(Cl)c2)cs1` (stereo unspecified), -11%.
For `COC(=O)c1ccc(C(=O)OC)c(NC(=O)C(C(C)C)N2C(=O)c3ccccc3C2=O)c1` (stereo unspecified) the value was -4.5%; for `O=C(O)CCC(=O)N1N=C(c2ccc(Br)cc2)CC1c1ccc(Br)cc1` (stereo unspecified), -5.3%.
With `COc1ccc(CN2CCN(C3CCCCC3)CC2)c(OC)c1`, the displacement is -11.9%.
As for `O=c1/c(=C/c2ccc(Sc3ccccc3)o2)sc2nc3ccccc3n12`, the figure is 48.5%; as for `CC(=O)Nc1ccc(NC(=S)Nc2ccccc2)cc1`, -14.9%.
For `O=C(Nc1cccc2ccccc12)c1ccc(Br)o1` the value was 0%; for `COc1c(Cl)cc(C(=O)Nc2cc(Cl)cc(Cl)c2)cc1Cl`, 2.3%.
For `CC1=NN(C(=O)c2ccc(Br)cc2)C(O)(c2ccccc2)C1` (stereo unspecified) the value was 9.2%; for `C=CCn1c(C(O)c2ccccc2)nc2ccccc21` (stereo unspecified), -0.3%.
Take `O=C(CC1S/C(=N\N=C2/CCCc3ccccc32)NC1=O)Nc1ccccc1F` (stereo unspecified): the displacement was -5.1%.
As for `COc1ccc(C2(CNS(=O)(=O)c3ccccc3)CCCC2)cc1OC`, the figure is -9.7%.
For `COc1ccc(Cl)cc1S(=O)(=O)N1CCN(C)CC1` the value was -10.1%.
As for `Cc1ccc(CNC(=O)C(=O)Nc2ccc(C)c(C)c2)cc1`, the figure is 2.8%.
With `CC(C)COc1ccc(C(=O)Nc2ccc(NC(=O)c3ccco3)c(Cl)c2)cc1`, the displacement is -5.1%.

(Values after PubChem BioAssay AID1240 (Sanford-Burnham Center for Chemical Genomics, 2008).)
